Data from ChEMBL document CHEMBL4888484, “Replenishing the malaria drug discovery pipeline: Screening and hit evaluation of the MMV Hit Generation Library 1 (HGL1) against asexual blood stage Plasmodium falciparum ,using a nano luciferase reporter read-out” (2022).
Out of some 150,000 compounds screened, about 540 (0.36%) showed an effect of 50% or more. The list shows a part of the results.

What follows are compounds tested on Plasmodium falciparum (assay: Primary screen in NF54 nanoGlo assay, in single point, at 2uM, 72h; a lower Z score goes with more inhibition). Details: timepoint 72 hour.
Format: functional, Erythrocyte
With `CCC(CC)C(=O)Nc1c(C)cccc1O` the “% Inhibition” value was -12% and the Z score was 2.01.
For `Cc1noc2nc(C3CC3)cc(-c3nc([C@H]4CCOC4)no3)c12`, the “% Inhibition” value was -18% and the Z score was 1.85.
With `Cc1n[nH]c2cc(NC(=O)Cc3noc4ccccc34)ccc12` the “% Inhibition” value was -11% and the Z score was 1.16.
For `CC(O)CC(C)(C)CNC(=O)NCC1CCCOC1C(C)(C)C` (configuration not stated), the “% Inhibition” value was -6% and the Z score was 0.99.
For `O=C(Nc1cccc(Oc2ccccc2)n1)[C@@H]1C[C@H]2CC[C@@H]1O2`, the “% Inhibition” value was -8% and the Z score was 1.32.
With `O=C1OC[C@@H]2CCNCc3ccccc3N12` the “% Inhibition” value was -4% and the Z score was 0.55.
For `O=C1CN(c2ccc(CNC(=O)NC(C3CC3)C3CC3)cc2)CCN1`, the “% Inhibition” value was -9% and the Z score was 1.13.
For `c1cncc(-c2nc(-c3cnccn3)n[nH]2)c1`, the “% Inhibition” value was 5% and the Z score was -0.87.
`O=C(NC[C@H]1CCCO1)Nc1ccc(Cl)c2ncccc12` was tested, and the “% Inhibition” value was 1% and the Z score was -0.08.
With `CC(C)c1cc(N[C@H]2Cc3ccccc3[C@@H]2N)nc(N)n1` the “% Inhibition” value was 10% and the Z score was -2.05.
`CCCOCC(=O)Nc1c(C)ccn2ncnc12` was tested, and the “% Inhibition” value was 2% and the Z score was -0.2.
With `CCc1nc(C(=O)N(C)C2CC2)nn1-c1c(Cl)cccc1Cl` the “% Inhibition” value was -4% and the Z score was 0.69.
For `Cc1nnc2ncc(-c3ccc4c(c3)OCCO4)cn12`, the “% Inhibition” value was -7% and the Z score was 1.42.
For `CN1CCC(CN(C)C(=O)C(C)(C)C2CC2)CC1`, the “% Inhibition” value was 13% and the Z score was -2.15.
With `O=C(CC1CC1)N1CCC(CCc2noc(-c3ccc(F)cc3)n2)CC1` the “% Inhibition” value was -10% and the Z score was 1.67.
In the case of `CCCC[C@H](NC(=O)c1c(C)cccc1OC)C(N)=O`, the “% Inhibition” value is reported as -10% and the Z score is reported as 1.3.
`CCc1nc(CNC(=O)N2CCC[C@H](OC)CC2)n[nH]1` was tested, and the “% Inhibition” value was -4% and the Z score was 0.62.
In the case of `Cc1nc(C(C)C)sc1[C@H](C)N(C)Cc1nnc2n1CCCC2`, the “% Inhibition” value is reported as 3% and the Z score is reported as -0.34.
With `O=C(Nc1nnc(-c2cccs2)o1)c1ccccn1` the “% Inhibition” value was -4% and the Z score was 0.48.
In the case of `CCn1cccc(NC(=O)NC[C@H]2c3ccccc3C(=O)N2C)c1=O`, the “% Inhibition” value is reported as -11% and the Z score is reported as 2.16.
`CCN1CCN(C(=O)CC2(N3Cc4ccccc4C3=O)CCC(C(C)(C)C)CC2)CC1` (configuration not stated) was tested, and the “% Inhibition” value was -8% and the Z score was 1.3.
With `NC(=O)[C@@H]1C[C@@H]2CCCN2[C@]12C(=O)Nc1ccc(F)cc12` the “% Inhibition” value was -7% and the Z score was 0.91.
With `c1cc(NCc2cccc3cn[nH]c23)cc(OCCn2cccn2)c1` the “% Inhibition” value was -14% and the Z score was 1.4.
In the case of `CCc1ncc(CN(C)c2ccnc(N(C)C)n2)s1`, the “% Inhibition” value is reported as -7% and the Z score is reported as 0.9.
With `O=C(N1Cc2cccnc2C1)C1(c2ccccc2)CCOCC1` the “% Inhibition” value was 4% and the Z score was -0.54.
`CC(=O)N(C)CC(=O)N1CCOc2cc(F)c(Br)cc21` was tested, and the “% Inhibition” value was -2% and the Z score was 0.38.
For `COc1ccccc1CNC(=O)c1cc2c(N3CCCC3)nc(C)cn2n1`, the “% Inhibition” value was -7% and the Z score was 0.89.
For `COc1cc(C2Nc3cccc4cccc(c34)N2)ccc1OCC(=O)Nc1ccc(Cl)cc1`, the “% Inhibition” value was -1% and the Z score was 0.08.
With `Cc1ncoc1C(=O)N1CC[C@@]2(CCCN(CC3CCCCC3)C2)C1` the “% Inhibition” value was -1% and the Z score was 0.16.
In the case of `Cc1cc(COc2cc(Cl)ccc2F)ncn1`, the “% Inhibition” value is reported as -8% and the Z score is reported as 0.85.
`CCn1cc(-c2ccc(Cl)cc2)cc1C(=O)N1CCN(c2ccccn2)CC1` was tested, and the “% Inhibition” value was -9% and the Z score was 1.59.
With `CN(C)c1nccc(N(C)C[C@H]2CCOC2)n1` the “% Inhibition” value was 8% and the Z score was -1.12.
For `CCc1noc(-c2[nH]c3ccccc3c2C(=O)C(=O)N(C)C)c1C`, the “% Inhibition” value was -7% and the Z score was 0.91.
In the case of `COc1ccc(NC(=O)N2CC[C@H](Cc3noc(C4CC4)n3)C2)cc1`, the “% Inhibition” value is reported as 0% and the Z score is reported as -0.06.
In the case of `CCC1CN(CCc2ccccn2)CCN1CC(C)O` (configuration not stated), the “% Inhibition” value is reported as -5% and the Z score is reported as 0.77.
In the case of `Cc1csc(-c2cc(S(=O)(=O)NCC3CC3)cn2CC(=O)N2CCCCC2)n1`, the “% Inhibition” value is reported as -7% and the Z score is reported as 0.93.
With `Cc1ccc(-c2ccc(C(=O)NCCc3ncnn3C)cc2)cc1C` the “% Inhibition” value was -13% and the Z score was 1.28.
With `CCCS(=O)(=O)Nc1ccc(S(=O)(=O)N[C@H]2CC(=O)N(C)C2=O)cc1F` the “% Inhibition” value was -15% and the Z score was 1.71.
In the case of `O=C(Cc1ccc(Cl)cc1)N1CCO[C@]2(CCS(=O)(=O)C2)C1`, the “% Inhibition” value is reported as -12% and the Z score is reported as 1.76.
In the case of `CCc1c(C)nc(C)nc1N1CCN(C)[C@]2(CCC(=O)N(CC)CC2)C1`, the “% Inhibition” value is reported as -2% and the Z score is reported as 0.3.
`FC(F)c1cc(C(F)F)n2nc(-c3nnc(-c4ccccc4)o3)cc2n1` was tested, and the “% Inhibition” value was 3% and the Z score was -0.39.
For `Clc1ccc(Cl)c(-c2cn(CCc3ccncc3)nn2)c1`, the “% Inhibition” value was -14% and the Z score was 2.75.
In the case of `O=C1CCCN1c1ccc(NC2CCN(CC(F)F)CC2)cc1`, the “% Inhibition” value is reported as -3% and the Z score is reported as 0.43.
`COc1cccc(Oc2nc(N3CCN(C)CC3)nc3c2CN(C(=O)c2ccc(C(F)(F)F)cc2)CC3)c1` was tested, and the “% Inhibition” value was -6% and the Z score was 1.13.
`Cc1cnn(CCNCc2csc(C3CCCC3)n2)c1` was tested, and the “% Inhibition” value was 2% and the Z score was -0.27.
`COc1cc(OC)c(N2CC(C(=O)NC(c3ccccc3OC)c3nccn3C)CC2=O)cc1Cl` (configuration not stated) was tested, and the “% Inhibition” value was -3% and the Z score was 0.33.
In the case of `FC1(F)C[C@@]12CCN(Cc1nc3c(o1)CCCC3)C2`, the “% Inhibition” value is reported as 10% and the Z score is reported as -1.
For `CCn1cc(CN(C)C(=O)c2ncoc2C2CC2)cn1`, the “% Inhibition” value was -16% and the Z score was 2.08.
For `Cc1cc2n(n1)[C@H](C(F)(F)F)CCN2C(=O)c1ccc2ncsc2c1`, the “% Inhibition” value was -3% and the Z score was 0.42.
In the case of `CC(C)N(CC(=O)Nc1ccccc1)C1CCOCC1`, the “% Inhibition” value is reported as -15% and the Z score is reported as 1.33.
For `Cc1ccccc1C(=O)NCCn1ccnc1-c1cccnc1`, the “% Inhibition” value was 21% and the Z score was -2.76.
With `CCCCCN(C(=O)Cc1ccc(O)cc1)C(C)C` the “% Inhibition” value was -16% and the Z score was 2.14.
In the case of `CC(=O)N[C@@H](C)C(=O)NCC1Cc2cc(C)cc(-c3nc4ccccc4s3)c2O1` (some centres not stated), the “% Inhibition” value is reported as 0% and the Z score is reported as 0.02.
`CN(C)c1ccc(CN2CCC3(CC2)NC(=O)c2ccccc2N3)cc1` was tested, and the “% Inhibition” value was -5% and the Z score was 0.64.
With `CN(C)c1nc(N)nc(CN2CCC3(CCCCC3)C2)n1` the “% Inhibition” value was -15% and the Z score was 1.49.
In the case of `Cc1ccc(CNC(=O)[C@H]2CCN(c3ccc(C(F)(F)F)cn3)C2)s1`, the “% Inhibition” value is reported as -16% and the Z score is reported as 1.53.
With `Cn1nncc1CNC(=O)N1CCC[C@H]1COc1ccc(F)cc1` the “% Inhibition” value was 1% and the Z score was -0.17.
For `CCCCN(C)C[C@H](C)NC1CCC2(CC1)C(=O)Nc1ccccc12` (some centres not stated), the “% Inhibition” value was -7% and the Z score was 1.13.
For `O=C(c1ccc(O)nc1)N1CCC(Cc2cccc(F)c2F)CC1`, the “% Inhibition” value was -6% and the Z score was 0.73.
In the case of `O=S(=O)(c1ccc(Oc2ccc(-c3nnco3)cc2)nc1)N1CCOCC1`, the “% Inhibition” value is reported as -2% and the Z score is reported as 0.33.
With `O=S(=O)(c1ccc(OCC2CC2)cc1)N1CCCC1` the “% Inhibition” value was 5% and the Z score was -0.62.
`Cc1ccccc1CNc1nc(N2CCC(N3CCCCC3)CC2)nc2c1cnn2C` was tested, and the “% Inhibition” value was 11% and the Z score was -2.07.
`CS(=O)(=O)CC1(NCc2ccc(F)cc2)COC1` was tested, and the “% Inhibition” value was -7% and the Z score was 0.69.
With `CC[C@H](C)C(=O)N(CCc1ccc(S(N)(=O)=O)cc1)S(C)(=O)=O` the “% Inhibition” value was -2% and the Z score was 0.33.
`COCCN(C)S(=O)(=O)c1ccc(C#N)cc1N1CC[C@H](O)C1` was tested, and the “% Inhibition” value was -3% and the Z score was 0.32.
`CCN(C)S(=O)(=O)N[C@H]1CCCc2nc(N3CCC(CO)CC3)ncc21` was tested, and the “% Inhibition” value was -11% and the Z score was 1.
`Cc1cccc(NC(=O)CN2CCN(c3cccc(Cl)c3)C2=O)n1` was tested, and the “% Inhibition” value was 2% and the Z score was -0.23.
With `CC[C@H]1CN(c2ncnc3c2CCC3)CCN1C(C)C` the “% Inhibition” value was -2% and the Z score was 0.29.
With `CC(C)Cc1ncc2c(n1)CN(c1nnnn1[C@@H](C)c1ccccc1)C2` the “% Inhibition” value was -5% and the Z score was 0.79.
With `NS(=O)(=O)c1ccc(F)c(Cl)c1` the “% Inhibition” value was -16% and the Z score was 1.86.
For `COCC1(C(=O)NC2CCCC(C(=O)N(C)C)C2)CCC1` (configuration not stated), the “% Inhibition” value was -3% and the Z score was 0.32.
In the case of `CCn1cc(NC(=O)C2CCN(C(=O)[C@@](C)(CC)CNC(=O)OC(C)(C)C)CC2)cn1`, the “% Inhibition” value is reported as -14% and the Z score is reported as 1.27.
In the case of `Cc1ccc(C)c(C2CN(C(=O)c3snnc3C)C(C)CO2)c1` (configuration not stated), the “% Inhibition” value is reported as -16% and the Z score is reported as 2.03.
`O=C(Nc1cccc2c1N(C(=O)C(F)(F)F)CCC2)C(F)(F)F` was tested, and the “% Inhibition” value was -9% and the Z score was 1.27.
In the case of `CC(C)N(Cc1ccccc1)C(=O)Nc1cccn(C)c1=O`, the “% Inhibition” value is reported as -3% and the Z score is reported as 0.46.
`O=C(Nc1ccc(N2CCCC2=O)c(F)c1)[C@@H]1CCCO1` was tested, and the “% Inhibition” value was -6% and the Z score was 1.08.
In the case of `CCN(CC)[C@H]1CCN(c2ncc(C(F)(F)F)s2)C1`, the “% Inhibition” value is reported as -7% and the Z score is reported as 1.08.
In the case of `COCCNC(=O)CC1CCN(C(=O)c2nnc(C(=O)Nc3cccc(Cl)c3)s2)CC1`, the “% Inhibition” value is reported as -29% and the Z score is reported as 2.56.
In the case of `CCC[C@](C)(NC(=O)OCc1ccccc1)C(=O)O`, the “% Inhibition” value is reported as -13% and the Z score is reported as 1.73.
For `CCOc1ccc(CNC(=O)C2CCCN(S(=O)(=O)N3CC(C)CC(C)C3)C2)cc1OC` (configuration not stated), the “% Inhibition” value was -6% and the Z score was 0.99.
In the case of `CC(C)(C)c1cc2cccnc2n1Cc1ccc(Cl)cc1Cl`, the “% Inhibition” value is reported as -9% and the Z score is reported as 1.32.
In the case of `Cc1nn(C)c(Cl)c1CN1CCC[C@H](CCC(=O)N2CCN(C)CC2)C1`, the “% Inhibition” value is reported as -3% and the Z score is reported as 0.38.
In the case of `Cc1cccc(NC(=O)[C@H]2CCCN(c3nc4c(s3)c(C)nn4-c3ccccc3)C2)c1C`, the “% Inhibition” value is reported as -7% and the Z score is reported as 0.96.
`O=C(NCc1noc(CCc2ccccc2)n1)c1ccccc1Br` was tested, and the “% Inhibition” value was -1% and the Z score was 0.08.
For `CN(C)c1noc(COC(=O)CCc2ccccc2Cl)n1`, the “% Inhibition” value was 0% and the Z score was -0.05.
With `Cc1ccc(-c2cc(C(=O)N3CCN(c4ncccn4)CC3)c(C)[nH]2)cc1` the “% Inhibition” value was -14% and the Z score was 2.35.
